{
  "source": "ChEMBL document CHEMBL5308541",
  "about": "“MAIP: An Open-Source Tool to Enrich High-Throughput Screening Output and Identify Novel, Druglike Molecules with Antimalarial Activity” (ACS Med Chem Lett, 2023)",
  "note": "The campaign covered roughly 4,800 compounds. About 410 (8.5%) showed an effect of 50% or more. The list shows a part of the results.",
  "data": [
    {"test_system": "Plasmodium falciparum", "assay": "Confirmatory screen in NF54 pLDH assay, in single point, at 2uM, 72h", "format": "functional, Erythrocyte", "settings": "timepoint 72 hour", "units": {"% Inhibition": "%"}, "values": [
      {"compound": "COc1ccc2[nH]cc(C3=CCN(c4ccc5nnc(-c6ccccc6F)n5n4)CC3)c2c1", "% Inhibition": 41},
      {"compound": "Nc1cc(N2CCC(c3nc4cc(F)ccc4[nH]3)CC2)nc(N2CCOCC2)n1", "% Inhibition": 42},
      {"compound": "CN1CCC(N(C)C[C@H](Nc2ncnc3ccccc23)c2ccccc2)CC1", "% Inhibition": 102},
      {"compound": "CCC1(NC(=O)c2cc(C)c3ccccc3n2)CCOCC1", "% Inhibition": 11},
      {"compound": "COc1ccc(-c2cccc3[nH]ccc23)nn1", "% Inhibition": -1},
      {"compound": "Cc1cc(N2CC3COCCC3(C(=O)O)C2)nc2ccc(F)cc12", "note": "(stereo not drawn)", "% Inhibition": 10},
      {"compound": "C[C@@H](c1ccc(-c2c(-c3ccccc3)ncn2CCCN(C)C)cc1)N(C)C", "% Inhibition": 24},
      {"compound": "Oc1ccc(OC(F)(F)F)cc1-c1ccc2nccn2n1", "% Inhibition": 92},
      {"compound": "CNC(=O)c1ccc(C(=O)Nc2nc(C3(C)CC3)ns2)cn1", "% Inhibition": 6},
      {"compound": "COc1ccc2c(N3CC[C@H](CN4CCCC4)C3)ccnc2c1", "% Inhibition": 102},
      {"compound": "Cc1cnccc1NCCNCc1ccc(OC(C)C)c(Cl)c1", "% Inhibition": 84},
      {"compound": "Brc1cccc(NCCNC2CCN(Cc3cccnc3)CC2)c1", "% Inhibition": 41},
      {"compound": "c1ccc2c(c1)CN(c1ncnc3[nH]ccc13)CC1(CCOCC1)O2", "% Inhibition": -5},
      {"compound": "Cc1cc(N2CCC(NCCc3c[nH]cn3)CC2)nc(-c2ccccc2)n1", "% Inhibition": 11},
      {"compound": "Cc1c(CN2CCC(O)(Cn3ccnc3)CC2)[nH]c2c(Cl)cccc12", "% Inhibition": 99},
      {"compound": "CC(C)c1ccc(-c2noc(CCN3CCN(CCCN(C)C)CC3)n2)cc1", "% Inhibition": 30},
      {"compound": "Cc1cc(N2CCC(NC3CCNC(c4ccccc4)C3)CC2)nc(C)n1", "note": "(stereo not drawn)", "% Inhibition": 33},
      {"compound": "CCN(C)CC1CCN(c2nc(NCCOC)nc(N3CCC(CN(C)CC)C3)n2)C1", "note": "(stereo not drawn)", "% Inhibition": 2},
      {"compound": "Cc1cnc(NC2CC(=O)N3CCCCC23)nc1NC1CC(=O)N2CCCCC12", "note": "(stereo not drawn)", "% Inhibition": 8},
      {"compound": "N#Cc1ccc(N2C[C@H](COCC3CC3)C3(CCN(Cc4cccc(O)c4)CC3)C2)cc1C(F)(F)F", "% Inhibition": 89},
      {"compound": "Cc1cc(N2CCC(Nc3ccnc4ccncc34)CC2)nc(C)n1", "% Inhibition": 7},
      {"compound": "Cc1ccc2nccc(N3CCC(N4CCC(O)CC4)CC3)c2c1", "% Inhibition": 12},
      {"compound": "Cc1cnccc1N1CCCN(Cc2ccccc2OCCN2CCN(C)CC2)CC1", "% Inhibition": 102},
      {"compound": "CCc1cc(NCCc2nc3cc(F)ccc3[nH]2)nc(-c2ccccn2)n1", "% Inhibition": 9},
      {"compound": "c1ccc(CNc2ccc(-c3noc(C45CCCN(CCC4)C5)n3)cn2)cc1", "% Inhibition": 99},
      {"compound": "CCNc1nc(C)cc(Nc2ccc(NC(=O)Nc3ccc(F)cc3F)cc2)n1", "% Inhibition": 99},
      {"compound": "CN(C)CCN1CCC(CNCc2ccc3ncccc3c2)CC1", "% Inhibition": 29},
      {"compound": "COc1ccc(OC2CCN(C3CCCC3)CC2)c(C(=O)NCc2cccc3[nH]ccc23)c1", "% Inhibition": 41}
    ]}
  ]
}
